From PubChem BioAssay AID1508623 (National Center for Advancing Translational Sciences (NCATS), 2021)
About 450 (0.94%) of roughly 48,000 compounds were called active. About 19% were inconclusive and are not listed. Calls follow the shape of the dose curve; as a rule, active = well fitted inhibition curve with a large enough effect; inconclusive = small, poorly fitted or top-dose-only effect; inactive = no such curve, though single readings can be large or run the other way. The list shows a part of the results.

assay: Primary qHTS for Identification of Small Molecule Inhibitors of Huntingtin Promoter Activity; conditions: HEK293 HTT promoter firefly luciferase reporter (activity 0% = vehicle and -100% = no light), 24 h; activity change, negative = inhibition: at the top concentration; also: nearly all actives have a fitted effect of over 50% in size
Description: Assay Provider: Russell L. Margolis M.D.
Department Neurology, Johns Hopkins University School of Medicine, Baltimore, MD
Huntington's Disease (HD) is a neurodegenerative disorder caused by a CAG repeat expansion in exon 1 of huntingtin (HTT). While there are currently no disease-modifying treatments for HD, recent efforts have focused on development of nucleotide-based therapeutics to lower HTT expression. As an alternative to siRNA or oligonucleotide methods, we hypothesized that suppression of HTT expression might be accomplished by small molecules that either (1) directly decrease HTT expression by suppressing HTT promoter activity or (2) indirectly decrease HTT expression by increasing the promoter activity of HTT-AS, the gene antisense to HTT that appears to inhibit expression of HTT.
We developed and employed a high throughput screen for modifiers of HTT and HTT-AS promoter activity using luminescent reporter HEK293 cells; of the 52,041 compounds tested, we identified 898 replicable hits. We used a rigorous stepwise approach to assess compound toxicity and the capacity of the compounds to specifically lower huntingtin protein in 5 different cell lines, including HEK293 cells, HD lymphoblastoid cells, mouse primary neurons, HD iPSCs differentiated into cortical-like neurons, and HD hESCs. We found no compounds which were able to lower huntingtin without lowering cell viability in all assays, though the potential efficacy of a few compounds at non-toxic doses could not be excluded.
SEQUENCE No. (1, 2, 3, etc.); […] (e.g., Cells, Incubation, Reagent, etc.); VALUE and DESCRIPTION.
1; Reagent; 4 uL; 2,500 Hek293 luciferase reporter cells per wells
3; Compound; 23 nL; Control inhibitor / compound library
5; Reagent; 2.5 uL; Firefly Luc reagent; Dual-Glo Luciferase Reporter Assay System (Promega)
6; Time; 10 min; room temperature incubation
7; Detection; Luminescence; FLuc
NOTES (numbers refer to sequence above)
1; High-throughput screening, measuring luminescence from a Hek293 luciferase reporter, was performed in 1,536 well white-walled tissue-culture treated plates. 2,500 cells were plated in 4 µL of Opti-MEM per well using a Multidrop Combi Reagent Dispenser (ThermoFisher).
2; Assay plates were cultured for 24 hours.
3; Control inhibitor (PTC124; final concentration of 50 uM) and compound library (at final concentrations of 460 nM - 57.5 uM) were added to the assay plate using the Kalypsis Pintool Robotic System equipped with 1536 pinheads.
4; Cells were then incubated for 24 hours at 37 degrees C prior to luminescence measurements.
5; In all cases, luminescence was measured using the Dual-Glo Luciferase Reporter Assay System (Promega) following the manufacturer's instructions.
6; Room temperature incubation.
7; Luminescence signal was obtained using the PerkinElmer ViewLux plate reader. Results were normalized to vehicle control (0% activity) and zero RLU (-100% activity).

| SMILES | activity change, negative = inhibition |
| --- | --- |
| CCOc1ccc(CN(CCc2ccc3c(c2)OCO3)Cc2cccc(Br)c2)cc1 | inactive: 0.0355% |
| O=C(COc1ccccc1Cl)N1CCN(CCc2ccccn2)CC1 | inactive: -8.84% |
| Nc1ccc([N+](=O)[O-])cc1 | inactive: -18.2% [at 116 µM] |
| Cc1cccc(OC(C)C(=O)NCC2(N(C)C)CCCCC2)c1C (configuration not stated) | inactive: -1.82% |
| Cc1nnc(NC(=O)c2cccn(Cc3ccccc3)c2=O)s1 | inactive: 11.4% |
| Cc1nnc2n1-c1sc(CCC(=O)N3CCOCC3)cc1C(c1ccccc1Cl)=NC2 | inactive: 1.78% |
| CC(Cc1ccccc1)N(C)Cc1ccco1 (configuration not stated) | inactive: 11.3% |
| CN(C)CCc1c[nH]c2ccccc12 | inactive: -1.35% [at 222 µM] |
| CC[N+]1(C)CCCC(OC(=O)C(O)(c2ccccc2)c2ccccc2)C1 (configuration not stated) | inactive: -1.99% |
| CCCc1nc(SC)ncc1C(=O)Nc1ccc(Cl)cc1C(=O)c1ccccc1 | inactive: -10.8% |
| CCOc1ccc(CN(CCc2ccc3c(c2)OCO3)Cc2ccc(CC)cc2)cc1 | inactive: -13.6% |
| COP(=S)(OC)Oc1ccc(S(=O)(=O)N(C)C)cc1 | inactive: 3.54% |
| CN1C(=O)CN=C(c2ccccc2)c2cc(Cl)ccc21 | inactive: 10.7% |
| C[C@]12CC[C@H](O)CC1=CC[C@@H]1[C@@H]2CC[C@]2(C)C(=O)CC[C@@H]12 | inactive: -4.28% |
| CC(Cc1ccccc1)NCc1ccccc1Cl (configuration not stated) | inactive: 2.49% |
| COc1ccccc1CN1CCN(C(=O)COc2cccc(C)c2)CC1 | inactive: -0.562% |
| COc1ccc(NC(=O)CN2C(=O)CN=C(c3ccccc3)c3ccccc32)c(OC)c1 | inactive: -4.71% |
| CC[C@@H](CO)NC(=O)[C@@H]1C=C2c3cccc4c3c(cn4C)C[C@H]2N(C)C1 | inactive: 12.4% |
| CN1C[C@H](CNC(=O)OCc2ccccc2)C[C@@H]2c3cccc4c3c(cn4C)C[C@H]21 | inactive: -20.9% |
| O=[N+]([O-])c1ncc[nH]1 | inactive: -6.01% |
| CCCCCCCCCC(=O)O[C@H]1CC[C@H]2[C@@H]3CCC4=CC(=O)CC[C@@H]4[C@H]3CC[C@]12C | inactive: 10.3% |
| CCN[C@H](C)Cc1cccc(C(F)(F)F)c1 | inactive: -4.38% [at 116 µM] |
| COc1ccc(C2CC(=O)Oc3c2c(=O)oc2ccccc32)c(OC)c1OC (configuration not stated) | inactive: 1.99% |
| COc1ccc(OC)c(CCNCc2c(C(=O)O)c(C)n(Cc3ccc(F)cc3Cl)c2C)c1 | inactive: -10.9% |
| CN1CCC(N(Cc2ccccc2)c2ccccc2)CC1 | inactive: -15.5% |
| CN[C@@H]1Cc2cccc3[nH]c(=O)n(c23)C1 | inactive: -2.69% |

| SMILES | activity change, negative = inhibition |
| --- | --- |
| COc1ccc(NC(=O)CCc2nc(C3=CCN(Cc4cccc(C)c4)CC3)no2)c(OC)c1 | inactive: -11.4% |
| Cc1cc(OCC(=O)N2CCN(CCc3ccncc3)CC2)cc(C)c1Cl | inactive: -27.1% |
| O=C1NCN(c2ccccc2)C12CCN(CCCOc1ccc(F)cc1)CC2 | inactive: 1.3% |
| CC(C)c1cccc(C(C)C)c1O | inactive |
| Cc1nc(-c2ccc(-c3ccc(C(=O)N4CCc5cc6c(cc54)C4(CCN(C)CC4)CO6)cc3)c(C)c2)no1 | inactive: -12% |
| Cc1ccc(CNC(=O)CCCn2c(=O)c3sccc3n(CC(=O)Nc3c(C)cccc3C)c2=O)cc1 | inactive: -16.3% |
| CC#C[C@]1(O)CC[C@H]2[C@@H]3C[C@H](C)C4=CC(=O)CC[C@]4(C)[C@H]3CC[C@@]21C | inactive: -14.8% |
| Clc1ccc(COC(Cn2ccnc2)c2ccc(Cl)cc2Cl)cc1 (configuration not stated) | inactive |
| COC1(CS(=O)c2ccccc2)CCN(CCc2c[nH]c3ccc(F)cc23)CC1 (configuration not stated) | inactive: -3.86% |
| O=C(COc1ccccc1[N+](=O)[O-])N1CCN(CCc2ccccn2)CC1 | inactive: -19.4% [at 11.5 µM] |
| Cc1ncsc1CCCl | inactive: 10.9% |
| O=C(Nc1ccccc1C(F)(F)F)c1cccn(Cc2ccccc2)c1=O | inactive: -13.9% |
| CNC(=O)Oc1cccc2ccccc12 | inactive: -3.65% |
| CCOC(=O)c1cncn1[C@H](C)c1ccccc1 | inactive: -11.6% |
| CCOC(=O)c1cncn1C(C)c1ccccc1 (configuration not stated) | inactive: 9.48% |
| C[C@]12Cc3cn[nH]c3C[C@@H]1CC[C@@H]1[C@@H]2CC[C@@]2(C)[C@H]1CC[C@]2(C)O | inactive: 1.65% |
| CC1=C(C(=O)O)N2C(=O)[C@@H](N)[C@H]2SC1 | inactive: 0.851% [at 25.2 µM] |
| CCN1CCN(C(=O)Cc2ccc(Nc3ncc(F)c(Nc4ccc(C(=O)Nc5ccccc5Cl)cc4)n3)cc2)CC1 | inactive: 3.67% |
| CCOC(=O)c1ccc(NC(=O)CSc2nc3c(cc2C#N)N2CCC3CC2)cc1 | inactive: -27% |
| Cc1cccc(Cn2cccc(C(=O)Nc3nc4ccccc4s3)c2=O)c1 | inactive: -17.4% |
| NCC1(CC(=O)O)CCCCC1 | inactive |
| Cc1cccc(-n2c(CC3C(=O)Nc4ccc(C)cc43)nc3ccccc3c2=O)c1 (configuration not stated) | inactive: -8.42% |
| COc1cccc(-n2c(/C=C/c3cccc(C)c3)nc3ccccc3c2=O)c1 | inactive: -8.8% [at 11.5 µM] |
| CCC(=O)C(CC(C)N(C)C)(c1ccccc1)c1ccccc1 (configuration not stated) | inactive: -5.86% [at 116 µM] |
| Cc1ccc(-n2c(/C=C/c3cccc4ccccc34)nc3ccccc3c2=O)cc1 | inactive: -16% |
| O=[N+]([O-])O[C@H]1CO[C@H]2[C@@H]1OC[C@H]2O[N+](=O)[O-] | inactive: -8.13% |
